# Measurements: PubChem BioAssay AID588591 (National Center for Advancing Translational Sciences (NCATS), 2011)
# Several values for one entry are separate records, joined by “and”; a condition that tells them apart may be missing. Identical values can stand only once. The whole screen tested about 390,000 compounds, of which about 4,700 (1.2%) were called active. Inconclusive results, whose numbers are uncertain, are shown with a selection of clear calls. The call rests on the fitted dose curve; in most records, active means well fitted inhibition curve with a large enough effect; inconclusive means small, poorly fitted or top-dose-only effect, or another doubt; inactive means no such curve, though single readings can be large or run the other way. Where the call is inconclusive, the potency comes from a doubtful curve fit.
# Target: DNA polymerase eta (Homo sapiens) (UniProt Q9Y253)
# Chain of UniProt Q9Y253 (Q9Y253 whole entry, looked up): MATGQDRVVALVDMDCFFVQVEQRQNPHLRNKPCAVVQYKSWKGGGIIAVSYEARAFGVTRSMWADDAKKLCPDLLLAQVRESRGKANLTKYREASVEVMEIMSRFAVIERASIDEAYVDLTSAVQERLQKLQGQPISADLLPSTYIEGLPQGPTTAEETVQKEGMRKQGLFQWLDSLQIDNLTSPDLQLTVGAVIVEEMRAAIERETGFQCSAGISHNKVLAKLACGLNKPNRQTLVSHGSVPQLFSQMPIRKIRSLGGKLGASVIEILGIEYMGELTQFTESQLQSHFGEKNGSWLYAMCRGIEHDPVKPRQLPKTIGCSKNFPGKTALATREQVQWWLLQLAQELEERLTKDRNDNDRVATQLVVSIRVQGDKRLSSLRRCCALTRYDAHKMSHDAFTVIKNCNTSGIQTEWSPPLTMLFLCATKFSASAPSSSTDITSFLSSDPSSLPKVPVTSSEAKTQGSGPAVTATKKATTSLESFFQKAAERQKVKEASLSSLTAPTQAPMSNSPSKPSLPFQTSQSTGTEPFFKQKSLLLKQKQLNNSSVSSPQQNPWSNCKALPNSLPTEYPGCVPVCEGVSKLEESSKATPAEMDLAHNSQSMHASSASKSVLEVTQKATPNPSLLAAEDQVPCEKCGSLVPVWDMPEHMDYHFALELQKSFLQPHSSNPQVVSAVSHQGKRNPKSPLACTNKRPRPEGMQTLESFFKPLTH
# Assay: qHTS for Inhibitors of Polymerase Eta
# Settings: recombinant Pol eta, fluorescent DNA replication assay; series mostly up to 114 µM
# How it was run: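 Pol eta (10 nM) was preincubated with compounds for 15 min at room temperature, after which fluorescent replication substrate (50 nM final) was added to start the reaction. Fluorescence was read kinetically at 0 and 10 min.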
# Potency means the concentration at half of the fitted maximal effect; tags describe the fitted curve by direction and shape.
row,Compound,Potency
1,Cc1ccc(NS(=O)(=O)c2ccc(Cl)c(NC(=S)NC(=O)C3CCCCC3)c2)cc1Cl,inactive
2,CCCS(=O)(=O)c1ncc(Cl)c(C(=O)Nc2c(C(=O)Nc3ccccc3)oc3ccccc23)n1,"inconclusive: 63.1 µM [inhibitor, partial curve, poor fit]"
3,COc1ccc(Nc2nnc(-c3ccc(C)c(S(=O)(=O)NCCO)c3)c3ccccc23)cc1C(N)=O,"inconclusive: 79.4 µM [inhibitor, partial curve]"
4,CCN(c1ccccc1C)S(=O)(=O)c1nnc(NC(=O)c2ccco2)s1,active: 50.1 µM
5,CCOC(=O)c1ccc2c(c1)nc(SCC(=O)c1ccco1)n2CC,"inconclusive: 39.8 µM [inhibitor, single point]"
6,CCC1=NN2C(=N)/C(=C\c3cccn3-c3ccc(C)cc3C)C(=O)N=C2S1,active: 50.1 µM
7,O=CC(O)C1OC(=O)C(O)C1O (stereo not drawn),active: 7.94 µM
8,COc1ccc(OC)c(-n2c(N)c(C(=O)NCC3CCCO3)c3nc4ccccc4nc32)c1 (stereo not drawn),"inconclusive: 20 µM [inhibitor, partial curve, poor fit]"
9,O=C(c1ccc2c(c1)N(Cc1cccc(F)c1)C(=O)c1ccccc1S2)N1CCC2(CC1)OCCO2,"inconclusive: 89.1 µM [inhibitor, single point]"
10,O=C(COC(=O)c1ccc([N+](=O)[O-])o1)NCc1ccc(F)cc1,active: 89.1 µM
11,NCC(O)c1ccc(O)c(O)c1 (stereo not drawn),"inconclusive: 56.2 µM [inhibitor, partial curve, poor fit] and inconclusive: 35.5 µM [inhibitor, partial curve]"
12,Cc1cccn2c(=O)cc(CSc3nnc(NC(=O)COc4ccccc4)s3)nc12,"inconclusive: 89.1 µM [inhibitor, partial curve, poor fit]"
13,O=C(C1CCCO1)N1CCN(c2ncccn2)CC1 (stereo not drawn),"inconclusive: 25.1 µM [inhibitor, single point]"
14,CCOC(=O)C1CCN(S(=O)(=O)c2cccc(-c3cn4ccccc4n3)c2)CC1,"inconclusive: 12.6 µM [inhibitor, partial curve, poor fit]"
15,CC(=O)NC(=S)Nc1sc2c(c1C#N)CCCCC2,inactive
16,COc1ccc(CNc2nc3c(-c4cccc(F)c4)nnn3c3ccccc23)cc1,"inconclusive: 79.4 µM [inhibitor, partial curve]"
17,COc1cc(/C=C2/C(=N)N3N=C(CC(=O)N4CCOCC4)SC3=NC2=O)ccc1OC(C)c1ccccc1 (stereo not drawn),"inconclusive: 89.1 µM [inhibitor, single point]"
18,Cc1cccc(C(=O)NC(=S)Nc2cccc3nc(C)ccc23)c1,"inconclusive: 17.8 µM [inhibitor, full curve, poor fit]"
19,CC1(c2ccccc2Cl)NC(=O)N(CC(=O)Nc2ccc3c(c2)OCO3)C1=O (stereo not drawn),inactive
20,Cc1cc(-c2ccccc2)nc(Nc2nc3c(C)cccc3c(=O)[nH]2)n1,active: 44.7 µM
21,N#C/C(=C(/O)CSc1nnc(Cc2cccs2)n1C1CCCCC1)c1nc2ccccc2[nH]1,active: 25.1 µM
22,Cc1ccc(S(=O)(=O)/N=C2/NC(=O)/C(=C/c3ccccc3)S2)cc1,"inconclusive: 89.1 µM [inhibitor, single point]"
23,Cn1c(NCCCO)nc2c1c(=O)n(Cc1ccccc1F)c(=O)n2C,inactive

row,Compound,Potency
1,COc1ccc(CNc2ncnc3c2[nH]c2cc(OC)c(OC)cc23)cc1,"inconclusive: 39.8 µM [inhibitor, partial curve]"
2,COc1ccc(S(=O)(=O)Nc2ccc3ccccc3c2)cc1C,"inconclusive: 2.82 µM [inhibitor, partial curve, poor fit]"
3,CC1(C(=O)OCC(=O)NCc2ccc(Cl)cc2)CC1(Cl)Cl (stereo not drawn),"inconclusive: 89.1 µM [inhibitor, partial curve, poor fit]"
4,COc1ccc(NC(=O)Cn2nc(C(F)(F)F)c3c2CCCC3)cc1OC,"inconclusive: 100 µM [inhibitor, partial curve, poor fit]"
5,COc1cccc(-c2nn3c(=O)cc(CN4CCN(C(=O)/C=C/c5ccccc5)CC4)nc3s2)c1,"inconclusive: 89.1 µM [inhibitor, single point]"
6,O=C(Cn1ncn2c(cc3ccccc32)c1=O)NCc1ccco1,active: 89.1 µM
7,O=C(c1ccc2c(c1)N(Cc1ccc(Cl)cc1)C(=O)c1ccccc1S2=O)N1CCC(Cc2ccccc2)CC1 (stereo not drawn),inactive
8,CCOC(=O)/C(=N\Nc1ccc(C(C)=O)cc1)c1csc(Nc2ccccc2)n1,"inconclusive: 25.1 µM [inhibitor, partial curve]"
9,O=Cc1c(-c2ccc(Cl)cc2)oc2ccc(O)cc12,active: 44.7 µM
10,COc1cccc(/C=N/NC(=O)c2ccc(-c3ccccc3)cc2)c1O,"inconclusive: 28.2 µM [inhibitor, partial curve]"
11,COc1ccc(C2=CC3=C(Br)C(=O)C(C)(OC(=O)c4ccc(Cl)nc4)C(=O)C3=CO2)cc1 (stereo not drawn),active: 22.4 µM
12,CSc1nc(=S)c2[nH]c(=S)[nH]c2[nH]1,inactive
13,CCc1nnc(NS(=O)(=O)c2ccc(NC(=O)c3ccc([N+](=O)[O-])s3)cc2)s1,"inconclusive: 50.1 µM [inhibitor, partial curve, poor fit]"
14,O=C(NN1C(=O)/C(=C/c2ccc(O)c(O)c2)SC1=S)c1ccccc1,active: 1.12 µM
15,COc1ccc(-c2nn(-c3ccccc3)cc2C(=O)NC(=S)N2CCOCC2)cc1OC,"inconclusive: 35.5 µM [inhibitor, partial curve, poor fit]"
16,O=C(O)c1ccc(-n2cccc2/C=C2/SC(=O)N(CC(=O)N3CCCC3)C2=O)cc1,active: 1.78 µM
17,NC(=O)N/N=C/c1cn(-c2ccccc2)nc1-c1cccs1,inactive
18,CCOC(=O)c1[nH]c2ccccc2c1NC(=O)c1c(F)cccc1F,inactive
19,Cc1ccc(-c2nn(CC(=O)NCCN3CCOCC3)c(=O)c3ccccc23)cc1,"inconclusive: 25.1 µM [inhibitor, partial curve, poor fit]"
20,Cn1c(-c2ccc(C(=O)c3ccccc3)s2)nc2ccccc21,"inconclusive: 2.82 µM [inhibitor, partial curve, poor fit]"
21,COc1cc(OC)cc(C(=O)NCCc2csc(-c3cccc(C)c3)n2)c1,inactive
22,Cc1c(C(=O)Nc2cccc(F)c2)sc2nc(-c3cc4ccccc4oc3=O)[nH]c(=O)c12,"inconclusive: 39.8 µM [inhibitor, partial curve, poor fit]"
23,CN(C1CCCCC1)S(=O)(=O)c1ccc(F)c(C(=O)Nc2ccc(C(F)(F)F)cc2)c1,"inconclusive: 89.1 µM [inhibitor, partial curve, poor fit]"

row,Compound,Potency
1,COCCCn1c(SCC(=O)NCc2ccco2)nc2sc3c(c2c1=O)CCC3,"inconclusive: 39.8 µM [inhibitor, partial curve, poor fit]"
2,C=CCC12C=C(OC)C(=O)OC(OC)(C1O)[C@H](c1ccc3c(c1)OCO3)[C@H]2C (stereo partly drawn),"inconclusive: 100 µM [inhibitor, partial curve, poor fit]"
3,CC(C)(C)NC(=O)C[C@H]1C[C@H](C(=O)N2CCOCC2)[C@@]2(CCC3CCCC3)c3[nH]c4cc(-c5ccco5)ccc4c3CCN2C1=O,inactive
4,Cc1ccc(NS(=O)(=O)c2ccc3c(c2)NC(=O)CO3)c(C)c1,inactive
5,CCCCNC(=O)CCCN1C(=O)CCn2nc(-c3cccn3C)cc21,inactive
6,Nc1c(C=C2C=CC(=O)C=C2)c(=O)nc2sc(CC(=O)N3CCOCC3)nn12,"inconclusive: 44.7 µM [inhibitor, partial curve]"
7,Cc1ccc(C(=O)Oc2ccc(C(=O)COC(=O)C3CC(=O)N(Cc4ccco4)C3)cc2)cc1 (stereo not drawn),active: 12.6 µM
8,O=C1c2ccccc2NC(c2ccc(O)cc2)N1Cc1ccco1 (stereo not drawn),inactive
9,O=C(Nc1cccc(-c2nc3cccnc3s2)c1)C1c2ccccc2Oc2ccccc21,active: 8.91 µM
10,O=C(NCc1ccc2c(c1)OCO2)c1cc2ncc(Br)cn2n1,active: 10 µM
11,COc1ccc(C(=O)N/N=C(\C)c2ccc(NC(=O)Cc3ccccc3)cc2)c(OC)c1,"inconclusive: 89.1 µM [inhibitor, partial curve, poor fit]"
12,O=C(/C=C/c1ccc(Cl)cc1Cl)Nc1ccncc1,"inconclusive: 28.2 µM [inhibitor, partial curve]"
13,c1ccc(CSc2nnc(-c3ccco3)c(-c3ccco3)n2)cc1,active: 22.4 µM
14,CCc1ccccc1NC(=O)Cn1ccn(-c2ccc(OC)cc2)c(=O)c1=O,inactive
15,CCOc1ccccc1NC(=O)C1=C(C)Nc2ncnn2C1c1sccc1C (stereo not drawn),inactive
16,CCOC(=O)N1CCN(CC(=O)NC(=O)Nc2ccc3c(c2)OCCO3)CC1,"inconclusive: 31.6 µM [inhibitor, partial curve, poor fit]"
17,COCCn1nnnc1C(c1ccc(OC)c(OC)c1)N1CCN(C(=O)c2ccco2)CC1 (stereo not drawn),"inconclusive: 3.98 µM [inhibitor, full curve, poor fit]"
18,Cc1cc(-c2ccc(F)cc2)nc2cc(C(N)=O)nn12,"inconclusive: 25.1 µM [inhibitor, partial curve]"
19,O=C(CSc1ccsc1[N+](=O)[O-])NCc1ccco1,active: 22.4 µM
20,Cc1c(CCC(=O)O)c(=O)oc2cc3occ(-c4ccc(Cl)cc4)c3cc12,active: 22.4 µM
21,Cc1cc(C)cc(NC(=O)c2sc3nc[nH]c(=O)c3c2C)c1,inactive
22,CCn1c2ccccc2c2cc(CN3CCN(Cc4ccc(OC)c(OC)c4)CC3)ccc21,"inconclusive: 79.4 µM [inhibitor, partial curve, poor fit]"
